Values marked as one replicate rest on one cluster of the flow cell; about a third of the high ones do not repeat.
System: ATP
Assay: switch fluorescence ratio, 500 uM ATP over buffer (Cy3 cluster intensity, sum of 5 cycles each) (fold (ratio)); higher = stronger signal-on switching upon ATP binding; sequences stand for … in TCGTCGGCAGCGTCAGATGTGTATAAGAGACAGTTTTTTTTTTTTTTTTTTTTTTTTT…TC
Details: aptamer strand: ATP DNA aptamer (quencher-CACCTGGGGGAGTATTGCGGAGGAAGG + anchor), 100 nM annealed; ATP concentration: 500 uM; one replicate
Summary of the method: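 Values give the fluorescence ratio for each switch-domain sequence, averaged from per-cluster ratios of summed target-cycle to summed buffer-cycle Cy3 intensity. The Cy3-labelled switching-strand clusters sat on a modified Illumina MiSeq flow-cell, were annealed to 100 nM quencher-labelled ATP aptamer, and were imaged in selection buffer, then after 15 min with 500 uM ATP at 22 °C. Five cycles ran with NaOH stripping and re-annealing between them, and clusters outside 100-1000 RFU were excluded.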
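Also: ATP exposure 15 min at 22 °C before imaging.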

| Sequence | switch fluorescence ratio |
| --- | --- |
| TTTTGATTCA | 0.993 |
| ACAAGCTGGA | 1.07 |
| AACAGGATTT | 1 |
| CCCAAAATGG | 1.05 |
| TTTCTTTCCA | 0.967 |
| GTAATACCTA | 1.07 |
| GATTATGTTT | 1.02 |
| TATATCGGGA | 1.01 |
| TGCGGAACAG | 0.981 |
| CTCGAGATTG | 1.01 |
| AAGGGAAGCT | 0.989 |
| TTTGTACTGT | 1.04 |
| ACGAACCGTC | 1.27 |
| AATTAGAAGT | 0.989 |
| AATTCTTCCC | 1.1 |
| AGTATAAGA | 0.974 |
| GTGGGGTTGA | 0.984 |
| GCTGCTGTTA | 0.989 |
| ATATACACAA | 1.07 |
| CTTATGGTGG | 1.04 |
| CGAGTAGCCC | 0.971 |
| TGGCAAGCTT | 1.3 |
| GATCCACTGT | 1.09 |

| Sequence | switch fluorescence ratio |
| --- | --- |
| AGAGCATGTT | 0.973 |
| GAGTATACAG | 0.969 |
| CCGTGTGGTA | 1.03 |
| ATGAAGGCTG | 1.05 |
| CGTGAGGGAA | 0.973 |
| TTCCCCACAT | 1.18 |
| CCTTTAAGAT | 1.06 |
| TTTTAGAACG | 1.03 |
| ATTATCCACC | 1.09 |
| CGTTAGGGTC | 1.01 |
| GTTCTGCAGG | 1.05 |
| TCCATTATGG | 0.977 |
| CACGGAGCCA | 1.34 |
| TCGTAAGAGA | 1.01 |
| CCCGCCGGCA | 1.17 |
| ACGAGGCTGC | 2.94 |
| GTTCCAGTAC | 1.25 |
| GGGTTACGTC | 1.01 |
| TGAAACGGGA | 1.03 |
| AAGTTACACT | 0.994 |
| TTTAGATAGC | 1.02 |
| GCCGTGGAGG | 1.05 |
| TGCACGAGGT | 0.997 |

| Sequence | switch fluorescence ratio |
| --- | --- |
| TTGTTGTCAG | 0.962 |
| GTAGTCCGGG | 0.973 |
| TAACCGTGTT | 1.01 |
| AGTTGCTTGA | 0.971 |
| AGGATAACGC | 1.1 |
| TACGGCGTAT | 1.01 |
| CGCGTCAAAA | 1.01 |
| GTTTCTAATC | 1.01 |
| AGCTTCCCGG | 1.44 |
| ATTTAACATT | 0.976 |
| CGGGGGCCGG | 1 |
| TTCGCAGATG | 1.02 |
| GGTTAAATGT | 0.974 |
| GGGGGCCTGA | 1.01 |
| TACTAAGTTA | 1.02 |
| AAGTGGAGCG | 0.968 |
| AGAAGCAACG | 0.986 |
| CGCTATGCCC | 1.13 |
| CTCTTGCTGA | 1.07 |
| CGGGACCTGC | 0.996 |
| TCGGCCCTCA | 1.02 |
| GCTTCGCGTG | 1.05 |
| CTTTGGTAGC | 1.01 |

| Sequence | switch fluorescence ratio |
| --- | --- |
| GAACCTATA | 1.02 |
| AGGGGGAAG | 1.02 |
| CTAATACCGT | 1.04 |
| TCAGCACGGC | 1.1 |
| CGATATTCTT | 0.967 |
| AACTAAGCCT | 1.04 |
| GAATTAAAGG | 0.987 |
| ATGGAAGCCA | 0.998 |
| GATCGTGTGA | 0.964 |
| GTACTAATGC | 1.08 |
| GTCGCGCTTT | 0.965 |
| GGACTCCAGA | 1.05 |
| AGGTTCTAGT | 1.02 |
| ATGGAGATTG | 1 |
| ATCGTTTAC | 0.983 |
| TAAGCGTGCC | 1.04 |
| CAATGGTCGG | 1.01 |
| AACCTTCGTT | 1.32 |
| AAGGAGACAC | 1 |
| CAAGGACCTA | 1.03 |
| GAAGCACTGC | 1.42 |
| AATCCTTACT | 1.45 |
| AAAGAGGGAA | 1.01 |

| Sequence | switch fluorescence ratio |
| --- | --- |
| TATTAGTGGT | 0.99 |
| TAATCGAGCC | 1 |
| ATATGCGGAA | 0.993 |
| CGTTACCAAA | 0.97 |
| GTCGCTCTTT | 0.99 |
| GTATCGGTT | 1.02 |
| ATTAGGCCAC | 0.999 |
| AGTTAATTAA | 0.989 |
| CTAGGCGCTC | 1.02 |
| GTAATCGGT | 1.06 |
| GCATTACTAG | 1.24 |
| TCGATGACCG | 1.13 |
| ACCTATTAGG | 1 |
| TTATAGTAGT | 1.05 |
| GCGTCTTTTG | 1.07 |
| TGTAATTCCG | 0.985 |
| GCTCGATATT | 1.01 |
| TGACATCTGT | 0.984 |
| GTTAGCAAGT | 1.02 |
| GTGGCTCGCT | 0.942 |
| ACGGTACGTT | 1.05 |
| AATCTCCAGC | 1.1 |
| TCCGAGGCTG | 2.83 |

| Sequence | switch fluorescence ratio |
| --- | --- |
| GCATTCAACT | 0.969 |
| CGACGAAGGA | 1.23 |
| AGAAATGATT | 0.977 |
| AGATGGTATT | 0.98 |
| TAATCCATTG | 0.955 |
| CTCTGGTACA | 1.1 |
| CCAGGGTTA | 1.01 |
| GTGATTTGGC | 0.966 |
| TCTGGGGCCA | 1.01 |
| GATATGCGA | 0.985 |
| CAGGAGCACG | 1.08 |
| TAGCTGCTTA | 0.989 |
| CTTTTTATCG | 1.08 |
| TGTTCGACTG | 0.926 |
| GATATGGCGC | 0.932 |
| TGATAGGGCA | 1.04 |
| TAAGAGTGA | 0.967 |
| CCAAGTATA | 1.04 |
| GTGAGCGATT | 1.03 |
| GCGGTACGCA | 1.01 |
| GTGAGGCCCG | 1.03 |
| GGGCGACAGG | 1 |
| AGGTAAATCG | 1.01 |

| Sequence | switch fluorescence ratio |
| --- | --- |
| ATGATACTGC | 1.09 |
| AGGTTTTGAG | 1.04 |
| AAGCGGGGGA | 1.04 |
| CCAATCGATT | 0.969 |
| AATCATCTAA | 0.975 |
| ATGGGAATGC | 1.17 |
| GCTCGATGGA | 0.989 |
| CTGGTACTGG | 0.996 |
| AACGGGGCGA | 0.985 |
| GACTGCGATG | 1.03 |
| CGCTCGGGGG | 1.04 |
| ATAAAATTGC | 1.09 |
| CATTTTCTGG | 1.02 |
| GTCAGAGCTG | 1.1 |
| GTTCGAACCA | 1.02 |
| TGGTGCATCA | 0.998 |
| TGTTTGGCCC | 0.945 |
| AGTGCTCG | 0.993 |
| CGAGCAGGTG | 3.35 |

— the supplement of paper PMC10126150
